Laboratory results published in the supplement of paper PMC8792480.
Where a name gives a salt, the structure may show the parent alone. Some of the results follow. Repeats are few or missing, and single values can be far off.

How the values were obtained:
[1] = system: A549; assay: cell-surface PD-L1 MFI ratio relative to radiation alone (isotype-subtracted); higher = higher PD-L1 surface expression; details: inducer: radiation 8 Gy; 10 µM; 24 h
Experimental: (§1)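 A549 and H460 NSCLC cells were treated with each library drug at 10 uM, then with radiation (8 Gy) or cisplatin (4 uM), and incubated for 24 h. Cell-surface PD-L1 was measured by flow cytometry as an MFI ratio: (MFI drug+inducer - MFI isotype)/(MFI inducer alone - MFI isotype). Hits were defined as ratio < 0.75.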

[2] = system: NCI-H460; assay: as above; details: inducer: radiation 8 Gy; 10 µM; 24 h
Experimental: as §1

[3] = system: A549; assay: cell-surface PD-L1 MFI ratio relative to cisplatin alone (isotype-subtracted); higher = higher PD-L1 surface expression; details: inducer: cisplatin 4 uM; 10 µM; 24 h
Experimental: as §1

[4] = system: NCI-H460; assay: as above; details: inducer: cisplatin 4 uM; 10 µM; 24 h
Experimental: as §1
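Throughout, for cell-surface PD-L1 MFI ratio relative to radiation alone (isotype-subtracted): surface PD-L1 on NSCLC cells stained with a PE-labelled anti-human PD-L1 antibody before flow cytometry, screening a library of roughly two hundred mostly kinase and epigenetic inhibitors.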

Structure (SMILES) | cell-surface PD-L1 MFI ratio [1] | cell-surface PD-L1 MFI ratio [2] | cell-surface PD-L1 MFI ratio [3] | cell-surface PD-L1 MFI ratio [4]
NC(=O)C1CCCc2c1[nH]c1ccc(Cl)cc21 (stereo unspecified) [Selisistat (EX 527)] | active: 0.654 | inactive: 2.07 | active: 0.65 | inactive: 1.02
O=C(Nc1cccc2cccnc12)c1ccc(N2C(=O)[C@@H]3[C@H](C2=O)[C@@H]2C=C[C@H]3C2)cc1 [IWR-1-endo] | inactive: 1.08 | inactive: 1.38 | active: 0.718 | inactive: 1.06
CN(c1ncccc1CNc1nc(Nc2ccc3c(c2)CC(=O)N3)ncc1C(F)(F)F)S(C)(=O)=O | inactive: 0.96 | inactive: 1.51 | – | active: 0.74
Nc1nc(NC2CC2)cc(-c2cccc(Cl)c2Cl)n1 | inactive: 0.851 | inactive: 0.958 | – | inactive: 0.928
CC(C)N(C[C@H]1O[C@@H](n2cnc3c(N)ncnc32)[C@H](O)[C@@H]1O)[C@H]1C[C@@H](CCc2nc3cc(C(C)(C)C)ccc3[nH]2)C1 [Pinometostat (EPZ5676)] | active: 0.63 | inactive: 1.02 | active: 0.453 | active: 0.659
CC(=O)O[C@H]1C(=O)[C@@]2(C)[C@H]([C@H](OC(=O)c3ccccc3)[C@]3(O)C[C@H](OC(=O)[C@H](O)[C@@H](NC(=O)c4ccccc4)c4ccccc4)C(C)=C1C3(C)C)[C@]1(OC(C)=O)CO[C@@H]1C[C@@H]2O [Paclitaxel] | active: 0.655 | inactive: 1.29 | – | inactive: 0.773
C[C@]1(O)C[C@@H](c2nc(-c3ccc4ccc(-c5ccccc5)nc4c3)c3c(N)nccn32)C1 [Linsitinib (OSI-906)] | inactive: 1.26 | inactive: 1.15 | inactive: 1.1 | inactive: 1.42
Cc1nc(Nc2ncc(C(=O)Nc3c(C)cccc3Cl)s2)cc(N2CCN(CCO)CC2)n1 [Dasatinib] | inactive: 0.797 | inactive: 1.53 | inactive: 0.948 | active: 0.656
COc1cc(N2CCN(C)CC2)ccc1Nc1nccc(-c2cn(C)c3cnccc23)n1 | inactive: 1.2 | inactive: 1.06 | inactive: 1.05 | inactive: 1.07
CCOC(=O)C1=C(C)NC(=S)NC1c1cccc(O)c1 (stereo unspecified) [Monastrol] | active: 0.657 | inactive: 0.988 | active: 0.426 | active: 0.681
NC(=O)c1cnc(NCCc2ccc(O)c(Cl)c2)nc1NCc1ccccc1 | inactive: 0.781 | active: 0.443 | – | inactive: 0.936
CNC(=O)c1cc(Oc2ccc(NC(=O)Nc3ccc(Cl)c(C(F)(F)F)c3)c(F)c2)ccn1 [Regorafenib] | inactive: 1.11 | inactive: 1.1 | active: 0.682 | inactive: 0.84
Cc1n[nH]c2ncc(C(=O)N3CCC[C@H]3c3ccc(Cl)cc3)cc12 | active: 0.667 | inactive: 1.01 | – | inactive: 0.848
Cc1cn(CCN2CCN(c3ccccc3-c3cc(C#N)cc(C(=O)NCCCN4CCCC4)c3)CC2)c2ccccc12 | inactive: 1.07 | inactive: 1.48 | – | inactive: 1.74
CC(ONC(=O)c1cc(C(F)(F)F)cc(C(F)(F)F)c1)C(=O)Nc1ccc(Cl)cc1 (stereo unspecified) | inactive: 0.803 | inactive: 1.25 | – | inactive: 1.06
O=C(O)c1ccc2c(c1)nc(Nc1cccc(Cl)c1)c1ccncc12 [Silmitasertib (CX-4945)] | inactive: 0.791 | inactive: 0.78 | inactive: 1.58 | inactive: 0.824
CCN(CCCOc1ccc2c(Nc3cc(CC(=O)Nc4cccc(F)c4)[nH]n3)ncnc2c1)CCOP(=O)(O)O [Barasertib (AZD1152-HQPA, AZD2811)] | inactive: 1.2 | inactive: 1.69 | – | inactive: 1.14
C=CCn1c(=O)c2cnc(Nc3ccc(N4CCN(C)CC4)cc3)nc2n1-c1cccc(C(C)(C)O)n1 [Adavosertib (MK-1775)] | inactive: 1.06 | inactive: 1.24 | inactive: 0.87 | inactive: 1.14
COc1ccc(-c2nc(-c3cc(C(F)(F)F)cc(C(F)(F)F)c3)n(Cc3ccc(C(N)=O)cc3)c2-c2ccc(OC)cc2)cc1 [Apoptozole] | inactive: 0.781 | inactive: 0.929 | – | active: 0.562
Cc1cnc(-c2cnc(NCCNc3ccc(C#N)cn3)nc2-c2ccc(Cl)cc2Cl)[nH]1 | inactive: 0.819 | inactive: 0.821 | inactive: 0.845 | inactive: 1.06
CNC(=O)c1cc(Oc2ccc(NC(=O)Nc3ccc(Cl)c(C(F)(F)F)c3)cc2)ccn1 [Sorafenib] | inactive: 1.22 | inactive: 1.27 | – | inactive: 1.53
O=C1CCc2c(Oc3ccc4c(c3)[C@@H]3[C@H](O4)[C@H]3c3nc4cc(C(F)(F)F)ccc4[nH]3)ccnc2N1 [Lifirafenib (BGB-283)] | inactive: 0.934 | active: 0.625 | inactive: 1.12 | inactive: 0.84
COc1cccc(OCCCN)c1-c1cc(Nc2cnc(C#N)cn2)n[nH]1 | inactive: 1.16 | inactive: 0.899 | – | active: 0.532
Cc1ccc(C(=O)N(CCCN)[C@@H](c2nc3cc(Cl)ccc3c(=O)n2Cc2ccccc2)C(C)C)cc1 | inactive: 1.11 | inactive: 1.09 | – | inactive: 1.83

Structure (SMILES) | cell-surface PD-L1 MFI ratio [1] | cell-surface PD-L1 MFI ratio [2] | cell-surface PD-L1 MFI ratio [3] | cell-surface PD-L1 MFI ratio [4]
CC(C)Oc1ccc(-c2c[nH]cc2CN(C)CCN)cc1 | inactive: 0.864 | inactive: 2.1 | – | inactive: 1.09
Cc1[nH]c(/C=C2\C(=O)Nc3ccc(S(=O)(=O)Cc4c(Cl)cccc4Cl)cc32)c(C)c1C(=O)N1CCC[C@@H]1CN1CCCC1 | inactive: 2.63 | inactive: 44.1 | – | inactive: 34.5
c1ccc(-c2nn3c(c2-c2ccnc4cc(OCCN5CCOCC5)ccc24)CCC3)nc1 | inactive: 1.27 | inactive: 1.42 | – | inactive: 1.17
Cc1[nH]c2ccc(F)cc2c1-c1nc2c3cccnc3c3ncccc3c2[nH]1 | inactive: 1.51 | inactive: 1.2 | active: 0.653 | inactive: 0.92
Cc1ccc(C(=O)c2cc(O)c(O)c([N+](=O)[O-])c2)cc1 [Tolcapone] | inactive: 1.58 | inactive: 1.48 | inactive: 0.93 | inactive: 1.38
COc1cc2nccc(Oc3ccc(NC(=O)NC4CC4)c(Cl)c3)c2cc1C(N)=O [Lenvatinib] | inactive: 1.46 | inactive: 1.25 | – | inactive: 1.23
Cc1c(F)cc(C(=O)NC2CC2)cc1-c1ccc(C(=O)NCC(C)(C)C)cn1 | active: 0.699 | inactive: 0.958 | inactive: 1.15 | inactive: 1.22
Cc1ccccc1C(=O)N1CCc2cc(-c3nc(NC(=O)Cc4ccc5c(c4)OCO5)sc3C)ccc21 | active: 0.69 | inactive: 1.04 | inactive: 1.15 | inactive: 1.74
CC[C@@H]1C(=O)N(C)c2cnc(Nc3ccc(C(=O)N[C@H]4CC[C@H](N5CCN(CC6CC6)CC5)CC4)cc3OC)nc2N1C(C)C [Volasertib (BI 6727)] | inactive: 1.24 | inactive: 1.4 | – | inactive: 0.856
CC(C)C[C@H](NC(=O)[C@H](Cc1ccccc1)NC(=O)c1cnccn1)B(O)O [Bortezomib (PS-341)] | inactive: 1.1 | active: 0.673 | inactive: 1.68 | inactive: 1.53
CS(=O)(=O)c1ccc(Oc2cc(F)cc(C#N)c2)c2c1[C@H](O)C(F)(F)C2 | active: 0.54 | inactive: 1.01 | active: 0.452 | active: 0.613
COc1cc2c(Oc3ccc4[nH]c(C)cc4c3F)ccnc2cc1OCC1(N)CC1 [Anlotinib] | inactive: 1.25 | inactive: 1.38 | inactive: 0.973 | inactive: 1.45
C[C@@H](N)[C@H]1CC[C@H](C(=O)Nc2ccncc2)CC1 | inactive: 0.836 | inactive: 1.27 | active: 0.568 | inactive: 0.976
O=C(c1ccc(Nc2nccc(-c3cc4ccccc4s3)n2)cc1)N1CCC(N2CCCC2)CC1 [IKK-16 (IKK Inhibitor VII)] | – | inactive: 1.05 | inactive: 1.08 | inactive: 1.15
COc1cc(Br)c(Nc2nc(-c3c(C)nc4ncccn34)cs2)c(Br)c1 | active: 0.733 | inactive: 1.04 | – | inactive: 0.766
Cn1cc(-c2ccc(F)c(C(F)(F)F)c2)nc1C1CCN(c2ncnc3[nH]ncc23)CC1 | inactive: 1.24 | inactive: 1.61 | – | inactive: 1.22
Cc1cc(F)c(C(=O)Nc2cccc(-c3nncn3C(C)C)n2)cc1-n1cnc(C2CC2)c1 [Selonsertib (GS-4997)] | inactive: 1.1 | inactive: 0.982 | – | inactive: 0.816
Cc1nc(Nc2n[nH]c3c2CN(C(=O)N[C@H](CN(C)C)c2ccccc2)C3(C)C)c2sccc2n1 | inactive: 1.09 | active: 0.557 | – | inactive: 1.44
O=S(=O)(c1cccc2cnccc12)N1CCCNCC1 [Fasudil (HA-1077) HCl] | inactive: 0.903 | inactive: 1.08 | – | inactive: 0.968
CNc1nc(-c2ccc3c(N)n[nH]c3c2)cc(N2C[C@@H](C(=O)NC3CCCCC3)CC[C@H]2C)n1 | inactive: 0.836 | inactive: 0.833 | – | inactive: 1.25
CCOC(=O)CCNc1cc(N2CCc3ccccc3CC2)nc(-c2ccccn2)n1 | inactive: 0.934 | inactive: 0.958 | – | active: 0.717
O=C(/C=C/c1ccc2ccc(C(F)(F)F)cc2n1)c1ccncc1 | inactive: 0.828 | inactive: 1.07 | – | inactive: 0.984
COc1ccc(N2C(=O)/C(=C\c3ccc([N+](=O)[O-])s3)SC2=S)cc1 | inactive: 2.99 | inactive: 1.07 | – | inactive: 3.23
